# Measurements published in a collection of fitness landscapes (doi:10.1016/j.celrep.2020.107928).
# Over roughly 81,000 sequences, “one-hybrid fitness for binding NBS DNA” has its median near -0.1; the highest 2% begin near 0.36. This is one part of the list.
# B1: Caulobacter ParB omega fusion; a variant is named by its letters at X, in order, B8GW30 (parent)
# chain: MESVVVGEPGMSEGRRGLGRGLSALLGEVDAAPAQAPGEQLGGSREAPIEILQRNPDQPRRTFREEDLEDLSNSIREKGVLQPILVRPSPDTAGEYQIVAGERAWRAAQRAGLKTVPIMVRELDDLAVLEIGIIENVQRADLNVLEEALSYKVLMEKFERTQENIAQTIGKSXSHVANXMRLLXLPDEVQSYLVSGELTAXHARAIAAAADPVALAKQIIEGGLSVRETEALARKAPNLSAGKSKGGRPPRVKDTDTQALESDLSSVLGLDVSIDHRGSTGTLTITYATLEQLDDLCNRLTRGI
# Variants of: B1
# Assay: one-hybrid fitness for binding NBS DNA (the Noc-binding site; scaled: cognate 1, non-cognate 0); higher = stronger binding
# Conditions: with NBS DNA site
# In short: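 In E. coli USO, a HIS3 reporter with its site placed 19 bp from the promoter was used to select Caulobacter ParB variants randomised at four specificity codons. Growth lasted 48 hours at 37°C on histidine-free M9 containing 0.1 mM IPTG and 5 mM 3-AT. Fitness was taken as the log change in variant-to-wild-type read ratio from Illumina sequencing of pre- and post-selection plasmids, rescaled between the non-cognate and cognate sites.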
row,Variant,one-hybrid fitness for binding NBS DNA
1,KVRR,0.23
2,ATAP,≤ 0.2
3,SQGC,≤ 0.2
4,RLKT,0.644
5,VKNF,≤ 0.2
6,QDEG,≤ 0.2
7,TYFT,≤ 0.2
8,FLVG,≤ 0.2
9,VYAS,≤ 0.2
10,TTLN,≤ 0.2
11,CWNG,≤ 0.2
12,CHPY,≤ 0.2
13,PQEG,≤ 0.2
14,DALK,≤ 0.2
15,TSKL,≤ 0.2
16,QTGF,≤ 0.2
17,MGAR,≤ 0.2
18,TRSV,≤ 0.2
19,SYTN,≤ 0.2
20,VKPS,≤ 0.2
21,SPVL,≤ 0.2

row,Variant,one-hybrid fitness for binding NBS DNA
1,CYRP,≤ 0.2
2,RFFC,≤ 0.2
3,QSHH,≤ 0.2
4,RMYT,0.417
5,QDMG,≤ 0.2
6,SHTT,≤ 0.2
7,KHLE,≤ 0.2
8,SVVT,≤ 0.2
9,SAER,≤ 0.2
10,QMLY,≤ 0.2
11,PMSG,≤ 0.2
12,PPRR,≤ 0.2
13,FIHY,≤ 0.2
14,VERT,≤ 0.2
15,MIGV,≤ 0.2
16,VLKM,≤ 0.2
17,LVQV,≤ 0.2
18,TWRG,≤ 0.2
19,TGSS,≤ 0.2
20,GPLP,≤ 0.2
21,SMRN,≤ 0.2

row,Variant,one-hybrid fitness for binding NBS DNA
1,CYLS,≤ 0.2
2,LRMV,≤ 0.2
3,VLPE,≤ 0.2
4,HNVC,≤ 0.2
5,RIRG,≤ 0.2
6,HVVV,≤ 0.2
7,HDTT,≤ 0.2
8,ERNR,≤ 0.2
9,KHEA,≤ 0.2
10,APTD,≤ 0.2
11,EDRA,≤ 0.2
12,GSSP,≤ 0.2
13,ETNG,≤ 0.2
14,RVWT,0.263
15,LWYN,≤ 0.2
16,QCLC,≤ 0.2
17,NDNS,≤ 0.2
18,SLKM,≤ 0.2
19,CDHG,≤ 0.2
20,CHQS,≤ 0.2
21,QEQW,≤ 0.2

row,Variant,one-hybrid fitness for binding NBS DNA
1,SSSI,≤ 0.2
2,MWMK,≤ 0.2
3,KMNV,≤ 0.2
4,VVKT,≤ 0.2
5,TTFI,≤ 0.2
6,LTTD,≤ 0.2
7,RNPQ,≤ 0.2
8,EHIT,≤ 0.2
9,ELNV,≤ 0.2
10,VTTD,≤ 0.2
11,VEFS,≤ 0.2
12,QDPV,≤ 0.2
13,GKCR,≤ 0.2
14,MKDR,≤ 0.2
15,EPIK,≤ 0.2
16,GWRR,≤ 0.2
17,SEKN,≤ 0.2
18,PKQN,≤ 0.2
19,RVSI,≤ 0.2
20,AENG,≤ 0.2
21,VFST,≤ 0.2
